Experimental data published in the supplement of paper PMC11417369.
The list shows a part of the results.

These sequences were tested on PF3D7_0420300 AP2 domain 1 (GST-tagged) (assay: gcPBM binding intensity (ln(normalized median fluorescence intensity)); higher = stronger DNA binding).
Outline: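 For binding intensity, the highest Masliner-normalised natural-log median intensity across replicate spots of either probe orientation was taken. Protein bound to the array was stained with Alexa488 anti-GST antibody and scanned at 488 nm. The protein, GST-tagged P. falciparum DNA-binding domains from E. coli at about 25 μg on average, had been applied for 1 h to an Agilent 4 × 180k array of primer-extended double-stranded 36-bp intergenic genomic probes and negative controls.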
“TTTGTATTACGTTTGTGTACATATACAATGTGTTTT [XGTACX_site7708]” was tested, and the “gcPBM binding intensity (ln)” value was 9.3. “CATACATATATACATACACACACATATAACCAATGT [CACACA_site8679]” was tested, and the “gcPBM binding intensity (ln)” value was 9.98. “TTTATTTATTTATGGACACACATACAAATCTTCCAG [CACACA_site4676]” was tested, and the “gcPBM binding intensity (ln)” value was 9.23. With “TCCATGCATTGACACACACACAAAAAAAAATTCTTT [CACACA_site7847]” the “gcPBM binding intensity (ln)” value was 9.57. For “ATAAAAATATTTATTACACACATAAGCAAAAAAAAA [CACACA_site3484]”, the “gcPBM binding intensity (ln)” value was 9.68. For “TATAATGATGATGATAGTACGTATGAGTAAGAAAAA [XGTACX_site31]”, the “gcPBM binding intensity (ln)” value was 9.44. With “TATTTTTATTTTTAAACCATATATATATATATATAT [CACACA_negctrl_site1560]” the “gcPBM binding intensity (ln)” value was 9.11. With “TATAGTTTCATTCTTTGTACATATATATTATTATTA [XGTACX_site8527]” the “gcPBM binding intensity (ln)” value was 9.43. For “AGATTTATTCATTCATGTACTTATTTATTTTATTTT [XGTACX_site6702]”, the “gcPBM binding intensity (ln)” value was 9.49. For “AATGTGCAAACAAACTGTACTTTTTTTTTTTTTTTT [XGTACX_site928]”, the “gcPBM binding intensity (ln)” value was 9.22. “TAAGTTTTGTTCTTTTGTACATATAAGTATAGATCG [XGTACX_site4735]” was tested, and the “gcPBM binding intensity (ln)” value was 8.99. In the case of “AATGTTTTTGTGAGATGTATAAATTTTATTTTATTT [XGTACX_negctrl_site413]”, the “gcPBM binding intensity (ln)” value is reported as 9.24. For “AAAAAAATAATGTACACACACATATAGGTTTATATA [CACACA_site192]”, the “gcPBM binding intensity (ln)” value was 9.77. With “AAACGTGTGTATAATAGTACATAATTATAACGTAAT [XGTACX_site421]” the “gcPBM binding intensity (ln)” value was 9.6. With “CGTATTTTTGGACATGCATGTACAAATAATCTTATG [TGCATGCA_site973]” the “gcPBM binding intensity (ln)” value was 9.08. “AAATTTGGCAAACACACACACACACCCACAGAGACA [CACACA_site4490]” was tested, and the “gcPBM binding intensity (ln)” value was 10.3. With “ATATATGGAGCTTATACACACTTTTATATTTTAACA [CACACA_site7757]” the “gcPBM binding intensity (ln)” value was 9.57. “TTGGGCATAATGTCATGTACACAAATAATTCTTTAT [XGTACX_site861]” was tested, and the “gcPBM binding intensity (ln)” value was 9.09. For “TTAAAATTATAATACGTACACACCTTATCTTTTTGG [CACACA_site278]”, the “gcPBM binding intensity (ln)” value was 9.39. “TGTTGTTTTATGTTGTATTGTAATATATTATATTAT [XGTACX_negctrl_site46]” was tested, and the “gcPBM binding intensity (ln)” value was 9.77. For “GGCGTATGTGTATATACACACCCACGTATATATATA [CACACA_site9046]”, the “gcPBM binding intensity (ln)” value was 9.5. “ATATATAACGGGCACACACACATTTACGTATGAATA [CACACA_site1833]” was tested, and the “gcPBM binding intensity (ln)” value was 9.97. With “TTAGGATTGAAGAGTTGTACATACCTCTTATTTGTT [XGTACX_site1376]” the “gcPBM binding intensity (ln)” value was 9.32. For “TATAAAATGTAATCTGAACACACATATTTTTTTAAT [CACACA_site8521]”, the “gcPBM binding intensity (ln)” value was 9.3. In the case of “ATCATATATTATTTATGTACTTATTTATAATAATAT [XGTACX_site8257]”, the “gcPBM binding intensity (ln)” value is reported as 9.28. “TTTATTTATTATTATGTACACACTATATTAAAACAT [CACACA_site700]” was tested, and the “gcPBM binding intensity (ln)” value was 9.37. With “TTATAATAAATATTCATATGTTCAAATATATATATA [CACACA_negctrl_site624]” the “gcPBM binding intensity (ln)” value was 8.93. For “AAATATATTTCTTTTTTTCTTATTATTAATTTGCTT [CACACA_negctrl_site1483]”, the “gcPBM binding intensity (ln)” value was 9.2. “TATAGATTTATATACACATGCATTTTGGTAAAGAAA [TGCATGCA_site953]” was tested, and the “gcPBM binding intensity (ln)” value was 9.12. With “TATTTTTTTAATAACTGTACTTTTTTGTCAAATGGA [XGTACX_site4179]” the “gcPBM binding intensity (ln)” value was 8.9. “ATTGTAAGTAGACACACACACATATAGATGTATATA [CACACA_site6463]” was tested, and the “gcPBM binding intensity (ln)” value was 9.83. With “ATTCATAATTTATTATGTACATATATATAATATATT [XGTACX_site1711]” the “gcPBM binding intensity (ln)” value was 9.15. For “AAATAACAAATTTTTAAAATGTATATATATATATAT [TGCATGCA_negctrl_site219]”, the “gcPBM binding intensity (ln)” value was 8.94. With “AAGGATATAACATACACACACACACCCATATATATA [CACACA_site4142]” the “gcPBM binding intensity (ln)” value was 10.3. “AAAGAAATTATTTGTTGTACATATGTTATTTTTTTT [XGTACX_site7570]” was tested, and the “gcPBM binding intensity (ln)” value was 9.36. TGCAATTTAATATGAGTGCATATATTGAGAAAATAC was tested, and the “gcPBM binding intensity (ln)” value was 9.19. In the case of “TAAAACCTTTAAAATACATGCAGCATATATAAGTAA [TGCATGCA_site181]”, the “gcPBM binding intensity (ln)” value is reported as 9.1. In the case of “ATATCATGTTAAGATTGTACATATATATAATATATA [XGTACX_site7626]”, the “gcPBM binding intensity (ln)” value is reported as 9.11. “AATAAATTGGTATGTTGTACAAAGTAACCATCGATT [XGTACX_site2823]” was tested, and the “gcPBM binding intensity (ln)” value was 9.22. “GGAAAATATGTTTGTGTGCACAGCTAGCTATTTGTA [GTGCAC_site9637]” was tested, and the “gcPBM binding intensity (ln)” value was 9.54. In the case of “CACCCACACCAACACACACACATATATATATATATA [CACACA_site362]”, the “gcPBM binding intensity (ln)” value is reported as 10.1. With “AATTTTTTTTGTCTCTGTACTTATAAAATATATATG [XGTACX_site4742]” the “gcPBM binding intensity (ln)” value was 9.38. With “TTTTTTTTTTTCAAGCGTACAAAAAATATATTTAAA [XGTACX_site5327]” the “gcPBM binding intensity (ln)” value was 8.74. “AAATAAATTGATTCAACACACACATATGTAGGAAGT [CACACA_site9068]” was tested, and the “gcPBM binding intensity (ln)” value was 9.91. For “AAAAAAAATTTTAATTGTACAAAAAAAAAAAATATA [XGTACX_site2259]”, the “gcPBM binding intensity (ln)” value was 8.91. With “TATATATGGGTAACCTTTTTTTTTTTTTTTCGAACA [CACACA_negctrl_site1303]” the “gcPBM binding intensity (ln)” value was 8.94. For “TTATTTTTTTTAAATTGTACAAGGAACAGTGAAAAA [XGTACX_site4380]”, the “gcPBM binding intensity (ln)” value was 9.1. With TTTGTGTGTACGCGTGTGCACATTTTTTTTTTTTTT the “gcPBM binding intensity (ln)” value was 9.51. With “TATATAACCTATAGCACACATATATAATATATATTA [CACACA_site1834]” the “gcPBM binding intensity (ln)” value was 9.32. “TTCTATTCAAATGCAAAATTATTAAATAAAAAATAA [GTGCAC_negctrl_site708]” was tested, and the “gcPBM binding intensity (ln)” value was 8.95. For “ATTATTACATTTTTATGTACATATCAAATTTATACA [XGTACX_site7332]”, the “gcPBM binding intensity (ln)” value was 9.13. For “TTAACTTAAGGAGAGTGTACAAATAATAAAATATCT [XGTACX_site4118]”, the “gcPBM binding intensity (ln)” value was 9.28. In the case of “TTAAAATATGAATAATGTACAAGAAATTTTATTAAT [XGTACX_site6314]”, the “gcPBM binding intensity (ln)” value is reported as 9.15. For “TCACTTAATATTTAATGTACATAAGGTTCTTGTGCC [XGTACX_site1822]”, the “gcPBM binding intensity (ln)” value was 8.93. TATAAATTAAAATGTGTGCACTAAATTGAAATAGAA was tested, and the “gcPBM binding intensity (ln)” value was 9.5. With “ATATATATATATAATAGTACATATATTTTTATTGGT [XGTACX_site711]” the “gcPBM binding intensity (ln)” value was 9.22. With “TAACCTAAAATAACTACACACACATAAAAAAAAAAA [CACACA_site8807]” the “gcPBM binding intensity (ln)” value was 10.1.
